Measured values taken from patent publication US20050070689A1 (Genentech, published 2005).

Assays:
[1] = molecular target: T1, TACIs expressed on transfected COS 7 cells (human, UniProt O14836 1-292); experiment: AP-TALL-1 staining of transfected cells, in situ AP activity
T1 sequence: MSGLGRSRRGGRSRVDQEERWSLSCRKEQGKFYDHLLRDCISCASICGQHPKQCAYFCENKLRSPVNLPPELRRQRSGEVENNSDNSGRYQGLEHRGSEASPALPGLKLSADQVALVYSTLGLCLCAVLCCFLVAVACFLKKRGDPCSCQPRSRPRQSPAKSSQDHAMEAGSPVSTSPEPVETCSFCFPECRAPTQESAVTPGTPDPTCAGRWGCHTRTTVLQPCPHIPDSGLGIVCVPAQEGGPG

[2] = molecular target: T2, human BR3 expressed on transfected COS 7 cells (human, UniProt Q96RJ3 1-184); experiment: expression cloning: AP-TALL-1 conditioned medium on COS 7 cells transfected with cDNA pools, in situ AP staining
T2 construct: also called hBR3
T2 sequence: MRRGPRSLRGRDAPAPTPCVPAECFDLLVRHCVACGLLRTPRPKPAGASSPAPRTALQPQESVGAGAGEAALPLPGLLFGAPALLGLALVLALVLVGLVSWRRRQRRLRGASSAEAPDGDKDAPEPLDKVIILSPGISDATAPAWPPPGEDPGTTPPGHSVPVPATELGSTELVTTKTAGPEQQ
Procedure: To identify a receptor for TALL-1, a cDNA expression library was constructed in pRK5 vector (EP 307,247, published Mar. 15, 1989) using PolyA+ mRNA derived from human spleen and IM-9 cells [Flanagan et al., Cell, 63:185 (1990); Tartaglia et al., Cell, 83:1263-1271 (1995)]. Pools of ˜1000 cDNA clones (Miniprep DNA (Qiagen)) from the library were transfected (using Lipofectamine) into COS 7 cells (ATCC) in 12 well plates using Fugene 6 (Roche Molecular Biochemicals), which after 36-48 hours, were then incubated with AP-TALL-1 conditioned medium, washed, and stained for AP activity in situ. [Yan et al., supra (2000)]. A positive pool was broken down to successively smaller size pools which contained neither TACI nor BCMA. After rounds of screening, cDNA encoding an AP-TALL-1 binding activity was identified. […] This polypeptide (amino acid residues 1-184 of FIG. 6B) was referred to as BR3. (Another cDNA encoding an AP-TALL-1 and AP-APRIL binding activity was also identified, and this molecule is identified as TACIs, described further below).

Flag-APRIL = molecular target: T3, Flag-APRIL (human, UniProt O75888 105-250); experiment: co-immunoprecipitation with protein A-agarose, anti-Flag Western blot
T3 construct: Purified on M2 anti-Flag resin
T3 sequence: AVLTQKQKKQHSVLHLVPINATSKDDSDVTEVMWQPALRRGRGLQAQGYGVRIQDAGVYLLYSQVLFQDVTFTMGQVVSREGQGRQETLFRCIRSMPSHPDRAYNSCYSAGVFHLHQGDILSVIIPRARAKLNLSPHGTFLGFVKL
Procedure: One μg of the purified Flag-APRIL or Flag-TALL-1 was incubated with 1 μg of purified human immunoadhesin containing the IgG1-Fc fusion of the ECD of BR3 or TACI overnight at 4° C. The TACI-ECD.hFc immunoadhesins were prepared by methods described in Ashkenazi et al., Proc. Natl. Acad. Sci., 88:10535-10539 (1991). The immunoadhesin constructs consisted of amino acids 2-166 of the human TACI polypeptide (see FIG. 1). The TACI-ECD constructs were expressed in CHO cells using a heterologous signal sequence (pre-pro trypsin amino acids 1-17 of pCMV-1 Flag (Sigma)) and encoding the human IgG1 Fc region downstream of the TACI sequence, and then purified by protein A affinity chromatography. The BR3-ECD immunoadhesins were prepared by methods described in Ashkenazi et al., as cited above. The immunoadhesin constructs consisted of amino acids 2-62 of the human BR3 polypeptide (see FIG. 6B). […]
The mixture was subjected to immunoprecipitation through the receptor-immunoadhesin with protein A-agarose (Repligen). The immunoprecipitates were then analyzed by Western blot with horseradish peroxidase-conjugated anti-Flag M2 mAb (Sigma) to detect the Flag-tagged ligands. Flag-TALL-1, but not Flag-APRIL, was readily detected in complex with hBR3-hFc whereas TACI-hFc bound both Flag-TALL-1 and Flag-APRIL.

Row | Binder | binding result [1] | binding result [2] | binding result (Flag-APRIL)
1 | AP-TALL-1 (ligand, Used as conditioned medium of transfected 293 cells; AP is at the N-terminus of TALL-1; Flag precedes AP (as described for AP-APRIL); not shown: human placental alkaline phosphatase (AP), amplified from pAPtag-5) not shown | binds | binds | 
2 | hBR3-hFc (Fc fusion, also called BR3-ECD immunoadhesin; not shown: human IgG1 Fc region) not shown |  |  | no binding (tested: 1 µg of each protein)
